From PMC4336329 (PLoS ONE, 2015)
Hit rate of the full screen: of about 310,000 compounds, about 14,000 (4.5%) showed an effect of 50% or more. The effect is printed as a negative number. This is one part of the list.

target: human ether-à-go-go-related gene (hERG) potassium channel (human, UniProt Q12809); assay: primary screen, population patch clamp on CHO cells stably expressing hERG
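Note: peak tail current of the secondary pulse compared with the same well before compound.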

human ether-à-go-go-related gene (hERG) potassium channel, sequence (Q12809 whole entry, looked up): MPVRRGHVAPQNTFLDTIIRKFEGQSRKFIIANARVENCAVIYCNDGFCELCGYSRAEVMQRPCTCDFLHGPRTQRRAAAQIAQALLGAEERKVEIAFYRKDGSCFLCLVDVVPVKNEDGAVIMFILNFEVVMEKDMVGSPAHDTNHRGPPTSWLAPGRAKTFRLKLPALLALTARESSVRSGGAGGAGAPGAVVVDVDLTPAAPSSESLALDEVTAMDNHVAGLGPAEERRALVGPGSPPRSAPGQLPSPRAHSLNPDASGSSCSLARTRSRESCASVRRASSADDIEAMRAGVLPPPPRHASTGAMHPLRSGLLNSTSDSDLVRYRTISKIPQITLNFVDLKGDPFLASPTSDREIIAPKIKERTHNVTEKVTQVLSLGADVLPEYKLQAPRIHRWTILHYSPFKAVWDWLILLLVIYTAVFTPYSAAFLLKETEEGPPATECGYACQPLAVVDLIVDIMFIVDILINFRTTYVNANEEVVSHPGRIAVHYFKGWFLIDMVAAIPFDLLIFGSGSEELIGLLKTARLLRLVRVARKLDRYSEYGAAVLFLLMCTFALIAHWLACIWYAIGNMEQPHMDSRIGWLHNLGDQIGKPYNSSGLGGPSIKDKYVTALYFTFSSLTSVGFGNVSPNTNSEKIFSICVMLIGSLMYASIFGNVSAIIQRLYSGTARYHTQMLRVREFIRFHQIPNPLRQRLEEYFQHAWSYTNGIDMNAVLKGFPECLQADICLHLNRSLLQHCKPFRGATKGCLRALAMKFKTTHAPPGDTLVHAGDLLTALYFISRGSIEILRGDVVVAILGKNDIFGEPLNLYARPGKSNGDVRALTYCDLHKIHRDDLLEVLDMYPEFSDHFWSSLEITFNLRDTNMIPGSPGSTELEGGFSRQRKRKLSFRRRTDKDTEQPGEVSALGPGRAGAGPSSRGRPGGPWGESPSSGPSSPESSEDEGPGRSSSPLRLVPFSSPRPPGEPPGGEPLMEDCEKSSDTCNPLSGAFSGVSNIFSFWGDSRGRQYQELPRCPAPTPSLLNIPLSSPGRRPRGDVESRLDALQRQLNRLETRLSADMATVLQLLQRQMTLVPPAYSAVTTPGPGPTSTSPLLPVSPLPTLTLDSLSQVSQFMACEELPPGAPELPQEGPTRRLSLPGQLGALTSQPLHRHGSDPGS

SMILES | hERG current change (%, negative = inhibition) at 10uM [%]
CCOc1cc(C)c(Cl)cc1S(=O)(=O)N1CCCC1 | -14.2
Cc1ccc(C)c(S(=O)(=O)NCC(c2ccco2)N2CCc3ccccc3C2)c1 (stereo not drawn) | -9.3
O=C(NC(CC(=O)N1CCN(c2ccccc2)CC1)c1ccccc1)c1ccccc1Cl (stereo not drawn) | -46.8
COC(=O)c1ccc(S(N)(=O)=O)o1 | -13
N#Cc1c(NC(=O)c2ccc([N+](=O)[O-])o2)sc2c1CCC2 | 20.8
O=C1C(Cl)=C(N2CCCCC2)C(=O)N1c1ccccc1 | -19.4
COc1cc(NC(=O)CCc2nc(-c3cccs3)no2)cc(OC)c1OC | 10.6
COc1ccc(C(=S)N2CCOCC2)cc1OC(=O)c1ccc(C)cc1 | -9.27
CCN1C(=O)C(C(=O)Nc2ccc(OC)cc2)C2CC1(C)Oc1ccccc12 (stereo not drawn) | -17.3
COc1ccc(N(CC(=O)Nc2ccccc2C(=O)NCCc2ccccc2)S(C)(=O)=O)cc1OC | -17.1
CCOC(=O)Cc1csc(NC(=O)CSc2nnc(C)n2C)n1 | 1.9
CCCCc1[nH]nc2c1C1(C(=O)N(CC)c3ccccc31)C(C#N)=C(N)O2 (stereo not drawn) | -7.27
CCc1ccc(N(C(=O)c2snc(C(N)=O)c2N)C(C(=O)NCC2CCCO2)c2cccs2)cc1 (stereo not drawn) | -1.13
Cc1ccc(OCC(=O)N2N=C(C(F)(F)F)CC2(O)C(C)(C)C)cc1C (stereo not drawn) | -15.9
Cc1cc(C)n(CCC(=O)N2CCCC(Nc3ccc(F)cc3)C2)n1 (stereo not drawn) | 12.9
Cc1c(N=Cc2c(O)n(Cc3ccco3)c(=O)[nH]c2=O)c(=O)n(-c2ccccc2)n1C | 7.89
Cc1noc(/C=C/N(C)C)c1S(=O)(=O)N(C)Cc1ccc(F)cc1 | -3.28
CC1CN(c2ccc([N+](=O)[O-])cn2)CC(C)O1 (stereo not drawn) | -19.7
Cc1ccc(C)c(S(=O)(=O)N2CCCOC2CNC(=O)C(=O)NCCc2ccccc2)c1 (stereo not drawn) | 4.01
COc1ccccc1NC(NC(=O)c1ccccn1)C(Cl)(Cl)Cl (stereo not drawn) | -3.32
COC(=O)c1ccccc1NC(=O)C1CC(=O)N(c2ccc(C)c(C)c2)C1 (stereo not drawn) | -13.1

SMILES | hERG current change (%, negative = inhibition) at 10uM [%]
CCN(CC(=O)Nc1ccccc1OC)C(=O)CN1C(=O)NC(C)(c2ccccc2)C1=O (stereo not drawn) | 4.57
CCc1ccc(OCC(O)CN2CCN(CCO)CC2)cc1.Cl (stereo not drawn) | -15.3
CN1CCN(Cc2nc3c(c(=O)[nH]c(=O)n3C)n2CCc2ccccc2)CC1 | -28.1
Cc1ccc2cc(CN(CCCO)S(=O)(=O)c3cccc4nsnc34)c(=O)[nH]c2c1C | -16.1
Cc1onc(COc2ccccc2O)c1Br | 11.2
COc1ccc(N(C)S(=O)(=O)c2cccc(C(=O)Nc3nc(C)cs3)c2)cc1 | -49.9
O=C(c1ccco1)N1CCN(C(=O)c2ccc(CS(=O)c3ccc(Cl)cc3)o2)CC1 (stereo not drawn) | -41
COc1ccc(S(=O)(=O)NC(CC(=O)N2CCC3(CC2)OCCO3)C(C)C)cc1 (stereo not drawn) | 10.9
COc1cccc(-n2c(SCC(=O)Nc3nccs3)nnc2-c2ccoc2C)c1 | -76.8
O=C(N/N=C/c1cccnc1)c1cccc(NC(=O)c2cccc(Br)c2)c1 | 16.7
Cc1ccc(C)c(NC(NC(=O)c2cccnc2)C(Cl)(Cl)Cl)c1 (stereo not drawn) | 4.57
COc1ccc(-n2nc(C(=O)NCC(=O)N3CCN(Cc4ccc5c(c4)OCO5)CC3)c3ccccc3c2=O)cc1OC | -11.9
Cc1sc(NC(=S)NC(=O)C2CCCCC2)c(C(N)=O)c1C | 18.7
COC(=O)N(c1ccc(OC)cc1)P1(=S)OCCC(C)O1 (stereo not drawn) | 21
CC1CC(C)(C)NC(=S)N1CCC(=O)N1CCN(Cc2ccccc2)CC1 (stereo not drawn) | 19.8
O=C(CCC(=O)OCC(=O)c1ccccc1)Nc1cccc2cccnc12 | -6.75
Nc1nc(=S)c2ncn(C3OC(CO)C(O)C3O)c2[nH]1 (stereo not drawn) | 49.6
COc1ccc2c(c1OC)C(=O)N1C2SC[C@H]1C(=O)NC1CC1 (stereo partly drawn) | 5.58
CCCCN1C(=O)c2ccc(C(=O)Nc3cccnc3)cc2C1=O | -6.77
CCOC(=O)c1c(NC(=O)CSc2nnc(-c3c[nH]c4ccccc34)n2CC)sc2c1CCCC2 | 23.1
O=C1C(=O)N(CCN2CCOCC2)C(c2ccc(Cl)c(Cl)c2)/C1=C(/O)c1ccc2c(c1)OCO2 (stereo not drawn) | 6.5

SMILES | hERG current change (%, negative = inhibition) at 10uM [%]
CCOc1ccc(N2C(=O)CN(c3cccc4ccccc34)C2=S)cc1 | 1.18
O=C(CCNC(=O)Cn1ccc2ccccc2c1=O)NCCCN1CCOCC1 | 9.16
CCCCN1C(=O)NC(NC(=O)C2CC2)(C(F)(F)F)C1=O (stereo not drawn) | 17.6
CC(C)CNS(=O)(=O)c1cc(C(=O)O)c(Cl)cc1Cl | 8.41
COc1ccc(NC(=O)c2ccc(COc3ccc(C)cc3)o2)cc1 | 27
COc1cccc2cc(-c3cc(=O)oc4cc(C)c(O)cc34)oc12 | 11.4
CC12CNCC(C)(CN(C(c3ccccc3)c3ccccc3)C1)C2 | -19.6
Cc1nc2nc(C)c(CCC(=O)N3CCOCC3)c(C)n2n1 | -21
COc1ccc(/C=N/NC(=O)c2c(-c3ccccc3)noc2C)cc1 | -14.3
CN(CCCC(=O)Nc1ccncc1)S(=O)(=O)c1ccc(Cl)cc1 | -53.8
O=C(Cn1cnc2ccccc2c1=O)NCCC(=O)Nc1ccc2c(c1)OCO2 | 16.4
CCc1cc(C(=O)c2ccc(OC)cc2)c(NC(=O)COCC(=O)O)s1 | 19.7
CC(=O)N1CN(S(=O)(=O)c2ccc(C)cc2)CC1C (stereo not drawn) | 5.8
COc1cc2c3c(c1)C(C)CC(C)(C)N3C(=O)C2=O (stereo not drawn) | -20.7
COc1cc([C@H]2c3[nH]c4ccccc4c3C[C@H]3C(=O)N4[C@@H](c5cc(OC)c(OC)c(OC)c5)c5[nH]c6ccccc6c5C[C@H]4C(=O)N23)cc(OC)c1OC | -31.1
COc1ccc(C(=O)NCc2nnc(SCC(=O)NCc3ccc(F)cc3)o2)cc1 | -12.4
CCc1nc(N)c(C#N)c(-c2ccco2)c1C | 7.36
COc1cccc(NC(=O)COC(=O)/C=C/c2ccc(Cl)cc2Cl)c1 | 6.89
Cc1ccc(C(=O)N2CCCC(C(F)(F)F)C2)cc1S(=O)(=O)N1CCOCC1 (stereo not drawn) | -3.3
Cl.O=C(N1CCN(Cc2ccccc2)CC1)C12CC3CC(CC(C3)C1)C2 | -8.81
O=C(c1ccc(Cl)c(Cl)c1)N1CCC(=O)N(C(COCc2ccc(Cl)cc2)Cc2ccccc2)CC1 (stereo not drawn) | -12.8

SMILES | hERG current change (%, negative = inhibition) at 10uM [%]
CC(C)N(C(=O)CC1ON(C)C(=O)N1c1ccc(Cl)cc1)C(C)C (stereo not drawn) | -31.9
CCN(Cc1cc2cc(OC)ccc2[nH]c1=O)C(=O)Cc1ccc(OC)cc1 | -22.2
Cc1nc2ccc(S(=O)(=O)NC(C(=O)N3CCC(C)CC3)C(C)C)cc2s1 (stereo not drawn) | -0.0501
COc1ccc(N2C(=O)CC(NC3CCCCNC3=O)C2=O)cc1 (stereo not drawn) | 8.59
CC(C)c1ccc(C(=O)NCCCN2CCN(CCCNC(=O)c3ccc(C(C)C)cc3)CC2)cc1 | -84.3
CCOc1ccc(-c2cc(C)[n+](CCc3ccc(OC)c(OC)c3)c(-c3ccc(OCC)cc3)c2)cc1.[O-][Cl+3]([O-])([O-])[O-] | -83.1
O=C(NCc1cccnc1)c1ccc(S(=O)(=O)N2CCCCC2)cc1 | -6.59
Cc1nonc1C(=O)N/N=C/c1ccncc1 | 5.11
CCN(CC)CC.NN1C(=O)/C(=C2/Sc3ccccc3N2CCCS(=O)(=O)O)SC1=S | -3.31
COc1ccc2[nH]c(=O)c(CN(Cc3cccs3)S(=O)(=O)c3cccc4nsnc34)cc2c1 | -8.11
O=C(c1cc2cc(F)ccc2[nH]1)N1CCC(Cc2ccccc2)CC1 | 19.7
CC1CCCCN1S(=O)(=O)c1coc(C(N)=O)c1 (stereo not drawn) | 2.36
O=C(CSc1nnc(CNc2cccc(C(F)(F)F)c2)n1Cc1ccco1)NCc1ccco1 | 16.8
Cc1[nH]c(C)c(S(=O)(=O)N2CCN(c3ccccc3F)CC2)c1C(=O)N1CCCCC1 | 16.7
CCOC(=O)CN1C(=O)N[C@@H](c2cccs2)C(C(=O)OC)=C1C | -11
COc1ccc(OCCCC(=O)Nc2nnc(C3CCCO3)s2)cc1 (stereo not drawn) | 3.96
O=C(NCc1cccnc1)c1ccc2c(c1)OCO2 | 5.94
COc1ccc(C(CNC(=O)Cc2ccc3ccccc3c2)N(C)C)cc1 (stereo not drawn) | -39.4
COc1ccc(C(=O)/C=C/Nc2cccc(C)n2)cc1OC | 14.7
CCCCCCC(=O)c1c([O-])n(-c2ccccc2OC)c(=O)[nH]c1=O.C[NH+](C)C | 12.7
COc1ccc(/C=N\Nc2ccc([N+](=O)[O-])cc2)c(C(=O)O)c1OC | -2.04
